Data: PubChem BioAssay AID743279 (National Center for Advancing Translational Sciences (NCATS), 2014)
Among all 360,000 compounds or so, about 17,000 (4.7%) were called active. The inconclusive results got no clear call from the source; some entries with a clear call stand among them for comparison. Cut-off read from the data, not from the text of the source: active = activity change below about -50%; inconclusive = mostly about -30% to -49%; inactive = weaker than that.

experiment: qHTS for Inhibitors of Inflammasome Signaling: IL-1-beta AlphaLISA Primary Screen; details: THP-1 LPS/ATP IL-1B secretion, 16 h; at 57.5 µM, stronger effect = lower value
Summary of the method: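 THP-1 cells pretreated 1 hr with compounds (up to 57.5 uM final), then stimulated with LPS (250 ng/mL final) plus ATP (1.25 mM final); secreted IL-1B measured by AlphaLISA after 16 hr, decreased signal indicating inhibition.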
% is set by controls: 0 for no effect and ±100 for the full control effect.

SMILES | activity change
Brc1ccc2c(c1)OCCOCCOc1cc(Br)ccc1OCCOCCOCCO2 | active: -56.4%
O=C(Cn1c(=O)n(-c2ccc(F)cc2)c(=O)c2sccc21)c1ccccc1 | inactive: -26.9%
Cc1ccc(Nc2c(-c3ccccc3O)nc3cnccn23)cc1 | inconclusive: -40.1%
CC(C)(CC(=O)N1CCN(c2ccc(Cl)cc2)CC1)CC1=NS(=O)(=O)c2ccccc2N1 | active: -50.9%
C=CCn1c(N)c(C(=O)NC2CCCCC2)sc1=S | inconclusive: -31.6%
CC(=O)Nc1cc(-c2ccc(S(C)(=O)=O)cc2)cn2c(-c3ccc(F)c(Cl)c3)cnc12 | inconclusive: -44.1%
CN(Cc1cn(Cc2ccccc2)nc1-c1ccc2c(c1)OCO2)Cc1nccn1C | inconclusive: -41.8%
COc1ccc(S(=O)(=O)N/N=C(/C)c2ccncc2)c(OC)c1 | inconclusive: -47.9%
N#Cc1nc(COc2ccccc2Cl)oc1NCc1ccco1 | inconclusive: -41.1%
CCOC(=O)c1c(C)n(C)c2ccc(O)c(CN3CCC(C)CC3)c12 | inconclusive: -45.6%
O=C1NC[C@H](Cc2ccccc2)N(C[C@@H]2CCCN2C[C@H](Cc2ccc(O)cc2)N2C[C@H](Cc3ccccc3)N(CCc3ccccc3)C(=O)C2=O)C1=O | active: -80.2%
Cc1ccc(CNc2ccc3c(c2)OCO3)cc1 | active: -93.2%
Cc1cc(NS(=O)(=O)c2ccc(NC(=O)CCSc3ccc(F)cc3)cc2)nc(C)n1 | inactive: 61.7%
CCN(C(=O)CSc1ncnc2sc(C)c(C)c12)C1CCS(=O)(=O)C1 (stereo not drawn) | inconclusive: -34%
Cc1ccc(-c2csc3ncnc(-n4cnc5ccccc54)c23)cc1 | inconclusive: -30.9%
CSc1ccc(/C=C/C(=O)c2ccc(NC(C)=O)cc2)cc1 | inconclusive: -42.1%
C=CCn1c(NCc2ccc(OC)cc2O)nc2ccccc21 | inconclusive: -46.9%
Cc1ccc(NS(=O)(=O)c2ccc(NC(=O)c3ccccc3C(=O)O)cc2)c(C)c1 | active: -67.4%
O=c1[nH]c(=O)n(-c2ccc(F)cc2)c2c1C(C(F)(F)F)(C(F)(F)F)N=C(c1ccc(F)cc1)N2 | inconclusive: -31.4%
COc1ccc(OC)c(Nc2nc(-c3cccs3)cs2)c1 | inconclusive: -30.5%
Cc1ccc(-c2csc(NC(=O)C3=COCCO3)n2)cc1C | active: -88.1%
CCN1CCN(CCNC(=O)c2ccc3c(c2)N(Cc2cccc(Cl)c2)C(=O)c2ccccc2S3=O)CC1 (stereo not drawn) | active: -55.4%
O=C(c1ccco1)N1CCCC(N2CCN(c3cccc(C(F)(F)F)c3)CC2)C1 (stereo not drawn) | inconclusive: -42.4%
